Results as given in PubChem BioAssay AID881 (National Center for Advancing Translational Sciences (NCATS), 2007).
The whole screen tested about 110,000 compounds, of which about 610 (0.55%) were called active. The shares of active, inactive and inconclusive entries below differ from those in the screen. Calls follow the shape of the dose curve; as a rule, active = well fitted inhibition curve with a large enough effect; inconclusive = small, poorly fitted or top-dose-only effect; inactive = no such curve, though single readings can be large or run the other way. Where the call is inconclusive, the potency comes from a doubtful curve fit.

Biological target: Polyunsaturated fatty acid lipoxygenase ALOX15B (Homo sapiens) (UniProt O15296)
Sequence of UniProt O15296 (O15296 whole entry, looked up): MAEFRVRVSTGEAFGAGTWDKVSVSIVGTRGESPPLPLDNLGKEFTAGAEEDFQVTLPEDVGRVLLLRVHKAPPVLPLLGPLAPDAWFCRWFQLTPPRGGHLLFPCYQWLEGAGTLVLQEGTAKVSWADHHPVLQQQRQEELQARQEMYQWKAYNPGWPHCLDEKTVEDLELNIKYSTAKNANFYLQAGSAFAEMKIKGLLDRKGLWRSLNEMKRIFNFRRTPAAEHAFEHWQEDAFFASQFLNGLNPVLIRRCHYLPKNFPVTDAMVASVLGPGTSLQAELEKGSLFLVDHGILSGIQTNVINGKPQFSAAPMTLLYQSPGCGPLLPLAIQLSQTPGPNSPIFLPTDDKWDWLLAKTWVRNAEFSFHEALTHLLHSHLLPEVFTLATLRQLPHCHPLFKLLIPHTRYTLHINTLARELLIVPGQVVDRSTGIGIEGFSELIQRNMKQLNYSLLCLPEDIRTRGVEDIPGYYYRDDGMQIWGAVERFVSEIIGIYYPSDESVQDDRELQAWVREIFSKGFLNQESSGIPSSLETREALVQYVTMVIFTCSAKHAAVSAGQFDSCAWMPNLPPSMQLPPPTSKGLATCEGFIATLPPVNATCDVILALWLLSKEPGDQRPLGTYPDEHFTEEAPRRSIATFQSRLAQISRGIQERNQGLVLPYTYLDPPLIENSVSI
Assay: qHTS Assay for Inhibitors of 15-hLO-2 (15-human lipoxygenase 2); also: nearly all actives have a fitted effect of over 60% in size
Conditions: purified 15hLO-2, xylenol orange hydroperoxide absorbance; activity change, negative = inhibition: at 57.1 µM (top of the series) unless noted
How it was run: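 Purified human 15hLO-2 (50 nM) preincubated 15 min with compound, then 45 uM arachidonic acid for 90 min at RT in 25 mM Hepes pH 7.5, 0.01% Triton X-100. Hydroperoxide detected by Fe-xylenol orange; 573/405 nm absorbance ratio.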
% is scaled to controls: 0 for no effect and ±100 for the full control effect; potency is read from the fitted curve at half-maximal effect; tags tell the direction and shape of the fitted curve.

Which Potency does the source give for `O=[N+]([O-])c1nn(-c2ccc3c(c2)OCCO3)n(O)c1=Nc1ccc(Cl)cc1` here?
The Potency was inconclusive: 12.6 µM [inhibitor, partial curve].

`Fc1ccc(-c2ccnc(=S)[nH]2)cc1` was tested. Which Potency did it give?
The Potency was inconclusive: 5.01 µM [inhibitor, partial curve].

How did the Potency turn out when `O=C1c2ccccc2NC(c2ccc(Cl)cc2Cl)N1O` (stereo not given) was run?
The Potency was inconclusive: 25.1 µM [inhibitor, single point].

How did the Potency turn out when `COc1ccc(-c2cc(C(=O)N3CCCc4ccccc43)no2)cc1OC` was run?
The Potency was “inactive”.

For `Cc1cccc(S(=O)(=O)c2c(N)n(/N=C/c3ccco3)c3nc4ccccc4nc23)c1`, which Potency is on record?
The Potency was inconclusive: 12.6 µM [inhibitor, partial curve].

For `C=CCSC(=C(C#N)C#N)c1cc2c([nH]1)CCCC2`, which Potency is on record?
Its Potency is inconclusive: 20 µM [inhibitor, partial curve].

`COC(=O)[C@@]1(Cc2ccc(OC)cc2)[C@H]2c3cc(C(=O)N4CCCC4)n(CCc4ccc(O)c(O)c4)c3C[C@H]2CN1C(=O)c1ccccc1` was tested. Which Potency did it give?
The Potency was inconclusive: 15.8 µM [inhibitor, partial curve].

Which activity change, negative = inhibition does the source give for `O=C(c1ccc(Cl)cc1)N1CCCOC1` here?
Its activity change, negative = inhibition is inactive: 0.68% [at 2.29 µM].

How did the Potency turn out when `CC(C)CN1CC[C@@]2(CCCN(C(=O)c3cc(C(F)(F)F)cc(C(F)(F)F)c3)C2)C1` was run?
The Potency was “inactive”.

With `Cc1cc(NC(=O)CSc2ccc3nnc(-c4cccc(F)c4)n3n2)no1` as the compound, how does the Potency read?
The Potency was inconclusive: 39.8 µM [inhibitor, single point].

Which Potency does the source give for `O=c1cc(-c2ccccc2)[nH]n1-c1ccc([N+](=O)[O-])cc1` here?
The Potency was inconclusive: 10 µM [inhibitor, partial curve].

How did the Potency turn out when `O=C(N/N=C/c1cc([N+](=O)[O-])ccc1N1CCNCC1)c1ccc([N+](=O)[O-])cc1` was run?
Its Potency is “inactive”.

Which Potency does the source give for `COc1ccc(CSc2nc(C)cc(=O)[nH]2)cc1Br` here?
Its Potency is “inactive”.

With `CCOc1ccc(C(=S)NC2CCCCC2)cc1` as the compound, how does the Potency read?
Its Potency is inconclusive: 15.8 µM [inhibitor, partial curve].

`CC(C)CN(CC(C)C)C1=N/C(=C\c2ccco2)C(=O)N1c1ccccc1` was tested. Which Potency did it give?
Its Potency is inconclusive: 15.8 µM [inhibitor, partial curve].

With `COc1ccc(-c2nc(-c3ccccc3)[nH]c(=O)c2C#N)cc1` as the compound, how does the Potency read?
Its Potency is “inactive”.

Which Potency does the source give for `CC(=O)Nc1nc(C)nc(-c2ccccc2OC(C)=O)n1` here?
The Potency was “inactive”.

With `COc1cc(OC)cc(C(=O)Nc2ccccc2N2CCOCC2)c1` as the compound, how does the Potency read?
The Potency was “inactive”.

How did the Potency turn out when `c1coc(CN=C2NC(=NCc3ccco3)c3ccccc32)c1` was run?
The Potency was “inactive”.

For `COc1cccc(Cn2c(N)c(C#N)c3nc4ccccc4nc32)c1OC`, which Potency is on record?
The Potency was inconclusive: 39.8 µM [inhibitor, single point].

For `COc1ccc(C2CC(=O)N3CN(c4ccc(C)c(Cl)c4)CSC3=C2C#N)cc1` (stereo not given), which Potency is on record?
Its Potency is active: 15.8 µM.

With `COc1cccc(C(=O)NCCN2CCOCC2)c1` as the compound, how does the Potency read?
The Potency was inconclusive: 0.199 µM [inhibitor, full curve, poor fit].

`Cc1ccc(/C=C(\NC(=O)c2ccc(C)cc2)c2nc(=S)[nH][nH]2)cc1` was tested. Which Potency did it give?
Its Potency is inconclusive: 12.6 µM [inhibitor, partial curve].

For `O=S(=O)(Nc1nc(-c2sccc2Cl)cs1)c1cc(Cl)ccc1Cl`, which Potency is on record?
The Potency was inconclusive: 25.1 µM [inhibitor, partial curve].

For `O=C(/C=C/c1ccc(Cl)cc1Cl)NC(=S)Nc1ccccn1`, which Potency is on record?
The Potency was inconclusive: 12.6 µM [inhibitor, partial curve].

For `CCN1CCCC1CNC(=O)c1cc(NC(C)=O)c(N(C)C)cc1OC` (stereo not given), which Potency is on record?
Its Potency is inconclusive: 0.251 µM [inhibitor, full curve, poor fit].

How did the Potency turn out when `Cc1ccc(Nc2c(-c3ccc(C)o3)nc3cnccn23)cc1` was run?
Its Potency is inconclusive: 12.6 µM [inhibitor, partial curve].

For `COc1ccc(Oc2ncc3nc(CCc4ccccc4)c(=O)n(C)c3n2)cc1`, which Potency is on record?
Its Potency is “inactive”.

Which Potency does the source give for `CCC(=C(CC)c1ccc(O)cc1)c1ccc(O)cc1` here?
Its Potency is inconclusive: 10 µM [inhibitor, partial curve].

Which Potency does the source give for `Cc1ccc(C2CC(=O)N3CN(Cc4ccco4)CSC3=C2C#N)cc1` (stereo not given) here?
Its Potency is inconclusive: 25.1 µM [inhibitor, partial curve].

With `Cc1cc2cc(CNC(=O)c3ccc4c(c3)OCO4)ccc2[nH]1` as the compound, how does the Potency read?
Its Potency is “inactive”.

How did the Potency turn out when `COC(=O)C(NNc1ccccc1)(NC(=O)c1cccc(F)c1)C(F)(F)F` (stereo not given) was run?
The Potency was inconclusive: 7.94 µM [inhibitor, full curve, poor fit].

`Cn1cccc1C(=O)OCC(=O)c1cc2ccccc2o1` was tested. Which Potency did it give?
Its Potency is inconclusive: 31.6 µM [inhibitor, single point].

Which Potency does the source give for `CC(=O)c1ccc(-n2c(-c3cc(-c4ccco4)[nH]n3)n[nH]c2=S)cc1` here?
The Potency was inconclusive: 20 µM [inhibitor, partial curve].

Which Potency does the source give for `COc1cccc(-c2cc(C(=O)Nc3cnn(Cc4ccccc4C)c3)no2)c1` here?
The Potency was inconclusive: 39.8 µM [inhibitor, single point].

`Cc1onc(-c2ccccc2)c1C(=O)Nc1nc2c(s1)CCCC2` was tested. Which Potency did it give?
Its Potency is “inactive”.

For `S=c1[nH]nc(COc2ccc3c(c2)OCO3)n1-c1ccccc1`, which Potency is on record?
Its Potency is inconclusive: 31.6 µM [inhibitor, single point].

`CC(C)CC(=O)Nc1ccccc1-c1nnn(CC(=O)N2CCc3ccccc3C2)n1` was tested. Which Potency did it give?
Its Potency is inconclusive: 0.251 µM [inhibitor, full curve, poor fit].

`O=S(=O)(NCCCc1ccccc1)c1ccccc1` was tested. Which Potency did it give?
The Potency was “inactive”.

Which Potency does the source give for `O=C(O)CC1S/C(=N/N=C/c2ccc(-c3ccc(Cl)cc3[N+](=O)[O-])o2)NC1=O` (stereo not given) here?
The Potency was inconclusive: 20 µM [inhibitor, partial curve].

Which Potency does the source give for `Cc1cc(C)c(/C=C2/C(=O)Nc3ccccc32)[nH]1` here?
The Potency was inconclusive: 12.6 µM [inhibitor, partial curve].

For `Cc1ccc(S(=O)(=O)N=Nc2c(O)[nH]c3cc(O)c(C(=O)O)cc23)cc1`, which Potency is on record?
The Potency was inconclusive: 6.31 µM [inhibitor, single point].

For `O=C(CN1C(=O)c2ccccc2C1=O)NN1C(=O)c2ccccc2C1=O`, which Potency is on record?
Its Potency is inconclusive: 1.58 µM [inhibitor, single point].

How did the Potency turn out when `O=C(NCc1cccs1)c1ccc(N2CCCCC2)nc1` was run?
The Potency was “inactive”.

How did the Potency turn out when `O=C(CSc1nc2ccccc2s1)c1cc2ccccc2o1` was run?
Its Potency is “inactive”.
